Assay results: the supplement of paper PMC10185492
The list shows a part of the results. These are enrichments in a pooled selection; single values are uncertain.

system: SARS-CoV-2 3CLpro (nsp5); experiment: substrate phage enrichment score (protease-eluted vs HEPES control, +1 offset) (ratio); higher = better cleaved substrate; conditions: selection round: 3; protease elution time: 0.5 h
Procedure: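 Random heptapeptide substrate phage display (M13 pIII fusion, heptapeptide between an N-terminal biotinylated AviTag GLNDIFEAQKIEWHE and pIII; phages immobilised on streptavidin) eluted by cleavage with 50 nM protease in 20 mM HEPES at 37 °C. Selected phages were NGS sequenced, and the enrichment score is (reads in protease sample + 1)/(reads in HEPES blank-selection control + 1).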

Substance | substrate phage enrichment score
CAAAQHQ | 1.26
TGRAQLH | > 31
VPCPERH | 0.769
SKAGSIR | 2
WDMRDPA | > 26
PRTERHP | > 23
ITTEGKR | 5.43
RAAAHQQ | 2.25
CNVSMPP | 17.5
ASAAAHH | 0.852
LNIRDCP | 1.27
PCAQYFQ | 10.9
ESVQIQS | > 56
SMQNEEP | > 25
GNAAAHH | 0.799
VDFQGGS | 1.6
SAASHHH | 0.667
CSRLQST | > 57
KTMPRSP | 3.86
KTPSSMQ | > 87
LSREWPA | > 24
ARCCTPE | 3.75
MEAAHHH | 0.333
LRTSTLQ | > 26

Substance | substrate phage enrichment score
SQVDSTG | 11.4
PLAAHHH | 0.857
VYLQGGS | 13
EHSALTV | 12
PATTVLH | 16.5
VTKWSEL | > 37
QNLKFRP | > 21
QPSACRA | 1.75
PTCRTVR | > 28
CAAAQHH | 0.914
LNFNCNS | 11.5
HSQALNG | 12.5
TWQLSCP | 0.733
NTRSCLQ | > 48
NSAAHHH | 2
GDHTRLQ | > 32
GCSSLHG | 2.32
GLESFQG | > 25
IGAAHHH | 0.647
RQPCTLQ | 116
EVGPRGP | 2.14
TESELQG | 11.5
SSMDINR | 1.93
RMAAHHH | 0.667

Substance | substrate phage enrichment score
VNLKHAP | 9
RPTCHLQ | > 47
SANLHGH | 11.5
LTNVKVH | 4.4
VTLQTQR | > 25
YLQDNAK | 1.19
STLGHSR | > 75
PQSQYYP | 2.1
GHTASPA | 1
RALESKQ | > 32
THTGVRP | > 23
QWPHAKP | > 24
NQGGSAA | 0.643
WAAAHHH | 0.799
DHHHHGA | 0.591
SLPVNLQ | 17.5
TRMSDTR | > 22
VGYAKLQ | > 26
SGVCMRK | > 22
LESPCQA | 2.08
YDCILQS | > 31
QVREEQQ | 0.467
PILPHVM | > 25
CYDMTRQ | > 23

Substance | substrate phage enrichment score
TPIATPQ | 5.5
CSAAAHH | 1.35
KANPRLQ | > 36
QRTREKN | 4.2
HTPQCKQ | > 23
GETRLRS | > 24
TRCQSEA | 4.56
YPWDIVQ | > 21
NQAAHHH | 1.76
PLCPMQS | > 34
ASQGANC | > 23
GCVNLQA | 292
SSSHNMT | 6.5
MGQTSGA | 1.44
STTSTTA | > 34
QRTRGPT | 0.792
GSAAHHH | 1.32
WQGPRLQ | 10
AIGCTLQ | > 37
GAGVHLW | > 24
QSAAHHH | 1.21
YRQPSSR | > 27
GHAMTLQ | > 23
TGSETHS | 8.3

Substance | substrate phage enrichment score
LNITESQ | 1
SGHTTLQ | > 26
IGSCVMD | 2.27
HYPFLQS | > 37
RVRVTLQ | > 230
GPTYAEA | 11
SSSQRLT | > 32
HPAAHHH | 0.674
THNNSVK | > 24
CRPVSAR | 4.2
SHVQNTW | > 49
CSLQCAL | 21
NLAAHHH | 0.765
TDSTRVK | 5
PRNEGVP | 0.833
RAVQLQG | > 26
PRVATPT | > 46
IPSDFMM | 1.65
RPTPYAN | 0.769
SQPLRQV | 1.84
SSVAAHH | 2.78
